Results on 44 compounds are retold here after paper PMC4336329 (PLoS ONE, 2015).

Out of some 310,000 compounds screened, about 2,200 (0.71%) showed an effect of 50% or more. Effects have a minus sign here. The list shows a part of the results.

human ether-à-go-go-related gene (hERG) potassium channel, sequence (Q12809 whole entry, looked up): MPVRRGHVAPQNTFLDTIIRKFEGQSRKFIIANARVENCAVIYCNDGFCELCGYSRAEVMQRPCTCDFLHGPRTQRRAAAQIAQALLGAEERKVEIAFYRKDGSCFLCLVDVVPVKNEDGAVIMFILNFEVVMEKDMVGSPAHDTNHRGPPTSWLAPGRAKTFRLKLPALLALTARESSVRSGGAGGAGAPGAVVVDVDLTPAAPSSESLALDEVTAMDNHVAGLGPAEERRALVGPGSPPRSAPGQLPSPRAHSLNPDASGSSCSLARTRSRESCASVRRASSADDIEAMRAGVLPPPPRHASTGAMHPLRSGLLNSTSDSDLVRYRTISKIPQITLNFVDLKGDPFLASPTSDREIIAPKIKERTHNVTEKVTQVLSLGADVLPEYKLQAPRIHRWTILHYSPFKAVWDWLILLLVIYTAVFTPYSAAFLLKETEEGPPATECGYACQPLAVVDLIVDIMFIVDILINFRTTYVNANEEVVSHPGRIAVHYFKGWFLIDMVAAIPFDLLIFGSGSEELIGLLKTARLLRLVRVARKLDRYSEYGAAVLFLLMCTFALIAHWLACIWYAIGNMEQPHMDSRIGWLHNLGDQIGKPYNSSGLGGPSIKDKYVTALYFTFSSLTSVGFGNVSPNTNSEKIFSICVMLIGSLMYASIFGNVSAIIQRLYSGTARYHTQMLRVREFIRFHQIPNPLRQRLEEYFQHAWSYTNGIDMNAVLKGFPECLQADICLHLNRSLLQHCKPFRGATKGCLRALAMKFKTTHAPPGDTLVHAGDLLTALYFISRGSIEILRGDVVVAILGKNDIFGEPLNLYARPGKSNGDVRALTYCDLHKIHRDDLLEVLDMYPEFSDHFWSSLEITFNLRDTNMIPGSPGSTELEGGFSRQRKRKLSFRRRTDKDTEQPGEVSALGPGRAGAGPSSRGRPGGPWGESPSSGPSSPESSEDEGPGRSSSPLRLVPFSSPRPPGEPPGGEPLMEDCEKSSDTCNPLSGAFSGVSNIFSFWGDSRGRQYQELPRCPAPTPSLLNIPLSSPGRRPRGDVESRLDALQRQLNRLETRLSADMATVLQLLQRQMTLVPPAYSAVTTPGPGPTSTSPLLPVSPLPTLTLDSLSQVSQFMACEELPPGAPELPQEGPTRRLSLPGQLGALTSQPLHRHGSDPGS

The assay concerns the target human ether-à-go-go-related gene (hERG) potassium channel (human, UniProt Q12809). As to the kind of experiment: primary screen, population patch clamp on CHO cells stably expressing hERG.
Turning to `CCc1nnc(NS(=O)(=O)c2ccc(NC(=S)NC(=O)/C=C/c3ccc(F)cc3)cc2)s1`, the “hERG current change (%, negative = inhibition) at 1uM” value is recorded as 23%.
Take `COc1ccc(/C=C/C(=O)Nc2ccc3nc4n(c(=O)c3c2)CCCC4)cc1`: the “hERG current change (%, negative = inhibition) at 1uM” value is 25.9%.
For the compound `COCC(C)OC(=O)c1c(N)n(CCCN2CCOCC2)c2nc3ccccc3nc12` (centres unmarked), the “hERG current change (%, negative = inhibition) at 1uM” value stood at 12.1%.
Turning to `C=CCc1cccc2cc(C(=O)NCCOC)c(=O)oc12`, the “hERG current change (%, negative = inhibition) at 1uM” value is listed as 10.9%.
Take `CCOC(=O)C(=O)NC1CCSC1=O` (centres unmarked): the “hERG current change (%, negative = inhibition) at 1uM” value came to 11.5%.
With `O=C(O)COCc1nc2ccccc2[nH]1` the figure was -2.87%; with `C(=C\n1nnc2ccccc21)/c1ccc[nH]1`, 8.3%.
On to `C/C(=N\NC(=O)c1ccc2c(c1)OCO2)c1ccc2c(c1)OCO2`, for which the “hERG current change (%, negative = inhibition) at 1uM” value came out at 9.27%.
In the case of `Cc1cccc2cc(CN(CCN(C)C)C(=S)Nc3ccccc3)c(=O)[nH]c12` it was 4.24%; in that of `O=C(CN1C(=O)NC(c2ccccc2)(c2ccccc2)C1=O)Nc1cccnc1Cl`, -4.88%; in that of `O=C(c1ccco1)N1CCN(S(=O)(=O)c2ccc(S(=O)(=O)NC3CCCCC3)cc2)CC1`, -4.39%.
With `CC(=NCCCN(C)C)C1=C(O)c2ccccc2C1=O` the figure was 1.37%.
With `Cc1ccccc1OCC(O)CN1CCN(c2ccccn2)CC1.Cl` (centres unmarked) the figure was -14.6%; with `Clc1ccc(Sc2cc(Cl)c(-c3ccccc3)nn2)cc1`, 8.23%.
For the compound `CCOC(=O)c1nnc(-c2ccccc2)nc1Sc1ccccc1Cl`, the “hERG current change (%, negative = inhibition) at 1uM” value is on record as 12.3%.
For `CC(=O)N1CCc2cc(NS(=O)(=O)c3cccs3)ccc21`, the “hERG current change (%, negative = inhibition) at 1uM” value is 6.68%.
In the case of `O=C(COC(=O)c1ccc(F)cc1F)NCCC1=CCCCC1` it was 11.6%; in that of `CNC(=O)c1cn(-c2ccccc2)c(=O)c2ccccc12`, 9.83%; in that of `O=C(C1CCN(S(=O)(=O)c2ccc(F)cc2)CC1)N1CCCC(C(F)(F)F)C1` (centres unmarked), 3.93%.
In the case of `COc1ccc(NC(=O)C2CC(=O)N(c3cccc(C)c3C)C2)cc1` (centres unmarked) it was 8%; in that of `COc1ccc(-c2cc3nc(C)cc(N)n3n2)cc1`, 6.77%; in that of `S=C(NCc1ccccc1Cl)NC1CCCC1`, 10.7%.
In the case of `CO/N=C(/COc1ccc(F)cc1)c1ccc(OC)cc1` it was 25.4%; in that of `Nc1ncnc2nc(SCc3ccccc3)[nH]c12`, 0.244%.
Regarding `COc1ccc(CCNC(=O)c2ccc(NS(=O)(=O)c3c(C)noc3C)cc2)cc1OC`, the “hERG current change (%, negative = inhibition) at 1uM” value turned out to be 6.66%.
With `O=C(Cc1c(F)cccc1Cl)NNC(=S)Nc1ccc(S(=O)(=O)Nc2ncccn2)cc1` the figure was 15.2%; with `CCc1ccc(NC(=O)COc2cccc(-n3cnnn3)c2)cc1`, 4.31%; with `CCN(CC)Cc1ccccc1CNC(=O)c1cccc(S(=O)(=O)Nc2ccc3c(c2)OCO3)c1`, -20.2%.
With `COC(=O)C1CCN(C(=O)c2ccc3nc(-c4cccc(OC)c4)oc3c2)CC1` the figure was 2.5%.
With `O=C(CN1C(=O)C2CC=CCC2C1=O)Nc1ccc(S(=O)(=O)Nc2nccs2)cc1` (centres unmarked) the figure was 6.39%; with `CCN1CCN(CC(O)COc2cccc(OC)c2)CC1.Cl` (centres unmarked), 12.2%; with `Cc1ccc(-n2c(=O)[nH]cc(C(=O)Nc3ccc4c(c3)OCCO4)c2=O)cc1`, 16.2%.
For `CC(C)(C)n1nnnc1C(c1cccnc1)N1CCOCC1` (centres unmarked), the “hERG current change (%, negative = inhibition) at 1uM” value amounted to 1.14%.
As to `Cc1ccc(C(=O)N(C)Cc2ccccc2)cc1S(=O)(=O)N1CCOCC1`, the “hERG current change (%, negative = inhibition) at 1uM” value is given as 9.21%.
`S=C(c1c[nH]c2ccccc12)N1CCOCC1`: the “hERG current change (%, negative = inhibition) at 1uM” value stood at 3.08%.
With `Cc1ccc2cc(CN(CCCN(C)C)C(=S)NCc3ccccc3)c(=O)[nH]c2c1C` the figure was -1.99%.
Turning to `CCCN1CN=C(Nc2nc3ccccc3o2)NC1`, the “hERG current change (%, negative = inhibition) at 1uM” value is 9.35%.
With `N=c1oc2cc(O)ccc2cc1C(=O)Nc1ccc(F)cc1`, the “hERG current change (%, negative = inhibition) at 1uM” value amounted to 10.2%.
Consider `COc1cccc(C(c2nnnn2Cc2ccccc2)N2CCN(C3CCCC3)CC2)c1OC.Cl` (centres unmarked), for which the “hERG current change (%, negative = inhibition) at 1uM” value was -3.92%.
Take `CCc1cc(C(=O)NNC(=S)Nc2cccc(C)c2)cs1`: the “hERG current change (%, negative = inhibition) at 1uM” value is given as 2.37%.
On to `O=C(/C=C/c1ccco1)NC(=S)Nc1ccc(O)c(-c2nc3ccccc3s2)c1`, for which the “hERG current change (%, negative = inhibition) at 1uM” value came to 12.6%.
With `CCN(Cc1ccccc1)C(=O)COC(=O)c1cnc(C)cn1` the figure was 16.9%; with `CCCOP(=O)(c1ccc(N(C)C)cc1)C(Nc1ccccc1)c1ccc(C)cc1` (centres unmarked), -4.42%; with `CCOc1ccccc1NC(=O)CSC1=NN2CCCC(=O)N=C2S1`, 5.32%.
